# Data as given in the supplement of paper PMC8728848.
# The other results are listed elsewhere or left out.
# What was measured:
# Experiment in all cases: glycan array binding signal (z-score within array); higher = stronger binding
# Conditions in all cases: glycan notation: IUPAC condensed, linker removed
# [1] = target: Gal(b1-3)GlcNAc(a1-3)Gal(b1-4)GlcNAc
# In short: (§1)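 Negative Z-scores can be read as non-binding. The Z-score is calculated within each array and then averaged across arrays of one protein sequence at different concentrations or buffers and across linkers. Arrays, 3228 in all, were curated from the Consortium for Functional Glycomics database and kept only where the protein sequence was available.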
# [2] = target: Gal(b1-3)GlcNAc(a1-6)Gal(b1-4)GlcNAc
# In short: as §1
# [3] = target: Gal(b1-3)GlcNAc(b1-2)Man
# In short: as §1
# [4] = target: Gal(b1-3)GlcNAc(b1-2)Man(a1-3)[Gal(b1-3)GlcNAc(b1-2)Man(a1-6)]Man(b1-4)GlcNAc(b1-4)GlcNAc
# In short: as §1
# [5] = target: Gal(b1-3)GlcNAc(b1-2)Man(a1-3)[Gal(b1-3)GlcNAc(b1-2)Man(a1-6)]Man(b1-4)GlcNAc(b1-4)[Fuc(a1-6)]GlcNAc
# In short: as §1
# [6] = target: Gal(b1-3)GlcNAc(b1-2)Man(a1-3)[GlcNAc(b1-4)][Gal(b1-3)GlcNAc(b1-2)Man(a1-6)]Man(b1-4)GlcNAc(b1-4)GlcNAc
# In short: as §1
# [7] = target: Gal(b1-3)GlcNAc(b1-2)[Gal(b1-3)GlcNAc(b1-6)]Man(a1-6)[Gal(b1-3)GlcNAc(b1-2)Man(a1-3)]Man(b1-4)GlcNAc(b1-4)GlcNAc
# In short: as §1
# [8] = target: Gal(b1-3)GlcNAc(b1-3)Gal(b1-3)GlcNAc
# In short: as §1
# [9] = target: Gal(b1-3)GlcNAc(b1-3)Gal(b1-4)Glc
# In short: as §1
# [10] = target: Gal(b1-3)GlcNAc(b1-3)Gal(b1-4)GlcNAc
# In short: as §1
# [11] = target: Gal(b1-3)GlcNAc(b1-3)Gal(b1-4)GlcNAc(b1-2)Man(a1-3)[Gal(b1-3)GlcNAc(b1-3)Gal(b1-4)GlcNAc(b1-2)Man(a1-6)]Man(b1-4)GlcNAc(b1-4)GlcNAc
# In short: as §1
# [12] = target: Gal(b1-3)GlcNAc(b1-3)Gal(b1-4)GlcNAc(b1-2)[Gal(b1-3)GlcNAc(b1-3)Gal(b1-4)GlcNAc(b1-6)]Man(a1-6)[Gal(b1-3)GlcNAc(b1-3)Gal(b1-4)GlcNAc(b1-2)Man(a1-3)]Man(b1-4)GlcNAc(b1-4)[Fuc(a1-6)]GlcNAc
# In short: as §1
# [13] = target: Gal(b1-3)GlcNAc(b1-3)Gal(b1-4)GlcNAc(b1-3)Gal(b1-4)GlcNAc(b1-2)[Gal(b1-3)GlcNAc(b1-3)Gal(b1-4)GlcNAc(b1-3)Gal(b1-4)GlcNAc(b1-6)]Man(a1-6)[Gal(b1-3)GlcNAc(b1-3)Gal(b1-4)GlcNAc(b1-3)Gal(b1-4)GlcNAc(b1-2)Man(a1-3)]Man(b1-4)GlcNAc(b1-4)[Fuc(a1-6)]GlcNAc
# In short: as §1
# [14] = target: Gal(b1-3)GlcNAc(b1-3)Gal(b1-4)GlcNAc(b1-6)[Gal(b1-3)GlcNAc(b1-3)]Gal(b1-4)Glc
# In short: as §1
# [15] = target: Gal(b1-3)GlcNAc(b1-3)Gal(b1-4)[Fuc(a1-3)]GlcNAc
# In short: as §1
# [16] = target: Gal(b1-3)GlcNAc(b1-3)Gal(b1-4)[Fuc(a1-3)]GlcNAc(b1-6)[Gal(b1-3)GlcNAc(b1-3)]Gal(b1-4)Glc
# In short: as §1
# [17] = target: Gal(b1-3)GlcNAc(b1-3)GalNAc
# In short: as §1
# [18] = target: Gal(b1-3)GlcNAc(b1-6)Gal(b1-4)GlcNAc
# In short: as §1
# [19] = target: Gal(b1-3)GlcNAc(b1-6)GalNAc
# In short: as §1
# [20] = target: Gal(b1-3)GlcNAc(b1-6)[Gal(b1-3)]GalNAc
# In short: as §1
# [21] = target: Gal(b1-3)GlcNAc6S
# In short: as §1
# [22] = target: Gal(b1-3)[Fuc(a1-4)]GlcNAc
# In short: as §1
# [23] = target: Gal(b1-3)[Fuc(a1-4)]GlcNAc(b1-2)Man
# In short: as §1
# [24] = target: Gal(b1-3)[Fuc(a1-4)]GlcNAc(b1-2)Man(a1-3)[Gal(b1-3)[Fuc(a1-4)]GlcNAc(b1-2)Man(a1-6)]Man(b1-4)GlcNAc(b1-4)[Fuc(a1-6)]GlcNAc
# In short: as §1
# [25] = target: Gal(b1-3)[Fuc(a1-4)]GlcNAc(b1-3)Gal(b1-3)[Fuc(a1-4)]GlcNAc
# In short: as §1
# [26] = target: Gal(b1-3)[Fuc(a1-4)]GlcNAc(b1-3)Gal(b1-4)GlcNAc
# In short: as §1
# [27] = target: Gal(b1-3)[Fuc(a1-4)]GlcNAc(b1-3)Gal(b1-4)[Fuc(a1-3)]GlcNAc
# In short: as §1
# [28] = target: Gal(b1-3)[Fuc(a1-4)]GlcNAc(b1-6)GalNAc
# In short: as §1
# [29] = target: Gal(b1-3)[GlcNAc(b1-6)]GalNAc
# In short: as §1
# [30] = target: Gal(b1-3)[Neu5Ac(a2-6)]GalNAc
# In short: as §1
# [31] = target: Gal(b1-3)[Neu5Ac(a2-6)]GlcNAc(b1-4)Gal(b1-4)Glc
# In short: as §1
# [32] = target: Gal(b1-3)[Neu5Ac(a2-6)]GlcNAc(b1-6)Gal(b1-4)Glc
# In short: as §1
# [33] = target: Gal(b1-3)[Neu5Ac(b2-6)]GalNAc
# In short: as §1
# [34] = target: Gal(b1-4)Gal
# In short: as §1
# [35] = target: Gal(b1-4)GalNAc(a1-3)[Fuc(a1-2)]Gal(b1-4)GlcNAc
# In short: as §1
# [36] = target: Gal(b1-4)GalNAc(b1-3)[Fuc(a1-2)]Gal(b1-4)GlcNAc
# In short: as §1
# [37] = target: Gal(b1-4)Glc
# In short: as §1
# [38] = target: Gal(b1-4)Glc6S
# In short: as §1
# [39] = target: Gal(b1-4)GlcNAc
# In short: as §1
# [40] = target: Gal(b1-4)GlcNAc(a1-6)Gal(b1-4)GlcNAc
# In short: as §1
# [41] = target: Gal(b1-4)GlcNAc(b1-2)Man
# In short: as §1
# [42] = target: Gal(b1-4)GlcNAc(b1-2)Man(a1-3)Man(b1-4)GlcNAc(b1-4)GlcNAc
# In short: as §1
# [43] = target: Gal(b1-4)GlcNAc(b1-2)Man(a1-3)[Gal(b1-4)GlcNAc(b1-2)Man(a1-6)]Man(b1-4)GlcNAc(b1-4)GlcNAc
# In short: as §1
# [44] = target: Gal(b1-4)GlcNAc(b1-2)Man(a1-3)[Gal(b1-4)GlcNAc(b1-2)Man(a1-6)]Man(b1-4)GlcNAc(b1-4)[Fuc(a1-6)]GlcNAc
# In short: as §1
# [45] = target: Gal(b1-4)GlcNAc(b1-2)Man(a1-3)[Gal(b1-4)GlcNAc(b1-2)Man(a1-6)][Gal(b1-4)GlcNAc(b1-4)]Man(b1-4)GlcNAc(b1-4)[Fuc(a1-6)]GlcNAc
# In short: as §1
binder,measurement,setting,value
"BDCA-2 (Homo sapiens), Q8WTT0 (protein) MVPEEEPQDREKGLWWFQLKVWSMAVVSILLLSVCFTVSSVVPHNFMYSKTVKRLSKLREYQQYHPSLTCVMEGKDIEDWSCCPTPWTSFQSSCYFISTGMQSWTKSQKNCSVMGADLVVINTREEQDFIIQNLKRNSSYFLGLSDPGGRRHWQWVDQTPYNENVTFWHSGEPNNLDERCAIINFRSSEEWGWNDIHCHVPQKSICKMKKIYI",glycan array binding signal (z-score),[1],-0.173
same,glycan array binding signal (z-score),[2],-0.135
same,glycan array binding signal (z-score),[3],0.157
same,glycan array binding signal (z-score),[4],7.94
same,glycan array binding signal (z-score),[5],1.26
same,glycan array binding signal (z-score),[6],0.569
same,glycan array binding signal (z-score),[7],1.74
same,glycan array binding signal (z-score),[8],-0.16
same,glycan array binding signal (z-score),[9],0.601
same,glycan array binding signal (z-score),[10],0.608
same,glycan array binding signal (z-score),[11],-0.163
same,glycan array binding signal (z-score),[12],-0.113
same,glycan array binding signal (z-score),[13],-0.117
same,glycan array binding signal (z-score),[14],-0.164
same,glycan array binding signal (z-score),[15],-0.159
same,glycan array binding signal (z-score),[16],-0.17
same,glycan array binding signal (z-score),[17],-0.154
same,glycan array binding signal (z-score),[18],-0.173
same,glycan array binding signal (z-score),[19],-0.172
same,glycan array binding signal (z-score),[20],-0.154
same,glycan array binding signal (z-score),[21],-0.162
same,glycan array binding signal (z-score),[22],-0.188
same,glycan array binding signal (z-score),[23],-0.077
same,glycan array binding signal (z-score),[24],-0.013
same,glycan array binding signal (z-score),[25],-0.167
same,glycan array binding signal (z-score),[26],0.763
same,glycan array binding signal (z-score),[27],-0.206
same,glycan array binding signal (z-score),[28],-0.149
same,glycan array binding signal (z-score),[29],-0.09
same,glycan array binding signal (z-score),[30],-0.137
same,glycan array binding signal (z-score),[31],-0.125
same,glycan array binding signal (z-score),[32],-0.106
same,glycan array binding signal (z-score),[33],-0.135
same,glycan array binding signal (z-score),[34],-0.157
same,glycan array binding signal (z-score),[35],0.75
same,glycan array binding signal (z-score),[36],2.85
same,glycan array binding signal (z-score),[37],-0.117
same,glycan array binding signal (z-score),[38],-0.144
same,glycan array binding signal (z-score),[39],-0.266
same,glycan array binding signal (z-score),[40],-0.178
same,glycan array binding signal (z-score),[41],-0.141
same,glycan array binding signal (z-score),[42],5.76
same,glycan array binding signal (z-score),[43],8.18
same,glycan array binding signal (z-score),[44],3.64
same,glycan array binding signal (z-score),[45],0.157
